Data taken from the supplement of paper PMC12217912.
The list shows a part of the results. Sequences were assembled here from the parent chain. Inactive controls read about 0.05.

B1: TEV protease; numbered along this chain (parent)
chain: MGESLFKGPRDYNPISSSICHLTNESDGHTTSLYGIGFGPFIITNKHLFRRNNGTLVVQSLHGVFKVKDTTTLQQHLVDGRDMIIIRMPKDFPPFPQKLKFREPQREERICLVTTNFQTKSMSSMVSDTSCTFPSGDGIFWKHWIQTKDGQCGSPLVSTRDGFIVGIHSASNFTNTNNYFTSVPKNFMELLTNQEAQQWVSGWRLNADSVLWGGHKVFMVKPEEPFQPVKEATQL

Variants of: B1
Test: raw area under fraction-flipped curve 0-4 h after induction (AUC4h, not background-subtracted), DNA-recorder readout of cleavage of the substrate (dimensionless); higher = more cleavage of the substrate by the protease variant
Conditions: temperature: 34 °C; time window: 0-4 h after rhamnose induction
Description: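 In vivo DNA recorder in E. coli TOP10(DE3) ΔrhaA at 34 °C. Each TEVp single-site mutant (parent TEVp 0) is paired with a single-site variant of the 7-mer TEVs (canonical ENLYFQ|S). The substrate sits between flexible linkers in a Bxb1-sfGFP-TEVs-SsrA fusion, so cleavage stabilises Bxb1 and speeds flipping of a recombination array, read by NGS. The value is the raw area under the fraction-flipped curve over 0-4 h after rhamnose induction (AUC4h), with ≥20 reads per time point. It is not background-subtracted; inactive controls average about 0.047.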
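Also: Bxb1 expression induced with 0.2% (w/v) L-rhamnose at OD600 near 0.5, cultures sampled hourly, flipped fraction per protease–substrate barcode pair counted by paired-end Illumina sequencing.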

| Variant | area with substrate ENLAFQS | area with substrate ENLCFQS | area with substrate ENLDFQS | area with substrate ENLFFQS | area with substrate ENLGFQS | area with substrate ENLHFQS | area with substrate ENLIFQS | area with substrate ENLKFQS | area with substrate ENLLFQS | area with substrate ENLMFQS | area with substrate ENLNFQS | area with substrate ENLPFQS | area with substrate ENLRFQS | area with substrate ENLVFQS | area with substrate ENLEFQS | area with substrate ENLQFQS | area with substrate ENLSFQS | area with substrate ENLTFQS | area with substrate ENLWFQS |
| --- | --- | --- | --- | --- | --- | --- | --- | --- | --- | --- | --- | --- | --- | --- | --- | --- | --- | --- | --- |
| N177A | 0.0954 | 0.0739 | 0.0801 | 0.0758 | 0.0643 | 0.0664 | 0.0861 | 0.0791 | 0.09 | 0.0802 | 0.0595 | 0.0634 | 0.0634 | 0.1 |  |  |  |  |  |
| G150R | 0.0524 | 0.0656 | 0.0608 | 0.067 |  | 0.0574 | 0.0587 | 0.0635 | 0.0541 | 0.045 | 0.0692 | 0.0534 | 0.068 | 0.0482 | 0.063 | 0.0708 | 0.0629 | 0.0499 | 0.112 |
| G150K | 0.0538 | 0.0645 | 0.0691 | 0.078 |  | 0.0576 | 0.0559 | 0.0513 | 0.0554 |  |  |  | 0.0449 | 0.0523 | 0.0638 | 0.0812 | 0.0523 |  | 0.0481 |
| G166V | 0.0667 | 0.0607 |  | 0.0474 |  | 0.0542 |  | 0.0543 | 0.0571 |  | 0.0544 | 0.0518 | 0.0442 |  | 0.0534 | 0.0427 | 0.0598 |  | 0.0496 |
| N186M | 0.0731 | 0.0718 | 0.0639 | 0.0868 |  | 0.0731 | 0.101 | 0.0761 | 0.0527 | 0.0597 | 0.0725 |  |  | 0.0864 | 0.0722 | 0.069 | 0.069 |  | 0.0787 |
| N186L | 0.0393 | 0.0404 | 0.0772 | 0.0854 | 0.0576 | 0.0804 | 0.0804 | 0.1 |  | 0.0712 | 0.067 | 0.0574 |  | 0.0893 | 0.052 | 0.0828 | 0.0569 |  |  |
| A196L | 0.0742 |  | 0.0604 | 0.1 | 0.0448 | 0.0707 | 0.0541 | 0.0857 | 0.0879 | 0.0818 | 0.0672 | 0.059 | 0.0804 |  | 0.0571 | 0.0733 | 0.0598 |  | 0.0644 |
| G202A | 0.059 | 0.0747 | 0.0778 | 0.0601 |  | 0.0642 | 0.0736 | 0.0691 | 0.0697 | 0.0679 | 0.0717 | 0.0474 | 0.0645 | 0.0681 | 0.0618 | 0.0645 | 0.0578 |  |  |
| T181L | 0.0499 | 0.0765 | 0.0621 | 0.0687 |  | 0.0751 |  | 0.0666 |  | 0.0637 | 0.0654 | 0.0467 |  |  |  |  | 0.0612 |  |  |
| L156W | 0.0629 | 0.06 | 0.0627 | 0.0585 | 0.0727 | 0.0633 | 0.0606 | 0.0642 | 0.0657 | 0.109 | 0.0659 | 0.0591 | 0.057 | 0.0589 | 0.0691 | 0.0539 | 0.062 |  | 0.0629 |
| S169T | 0.0749 | 0.0768 | 0.0634 | 0.0887 |  | 0.0687 | 0.0856 | 0.083 |  | 0.0683 | 0.0623 | 0.0571 | 0.0818 | 0.0856 | 0.0503 | 0.0868 | 0.0576 | 0.0689 |  |
| I139A | 0.0624 | 0.0705 |  | 0.0943 | 0.0682 | 0.0634 | 0.104 | 0.0777 | 0.0748 |  | 0.0701 | 0.0601 |  | 0.0436 | 0.0448 | 0.0527 | 0.049 | 0.0685 | 0.0682 |
| I139G | 0.0676 |  |  | 0.0934 |  | 0.056 |  | 0.0711 | 0.0456 |  | 0.062 | 0.0604 | 0.097 | 0.0678 |  | 0.0564 | 0.0617 |  | 0.0628 |
| D161K | 0.0562 |  | 0.063 | 0.0632 | 0.0459 | 0.058 |  | 0.0649 | 0.0518 |  | 0.061 | 0.0508 | 0.0715 |  |  |  | 0.0674 |  |  |
| D161F | 0.035 | 0.0573 | 0.0588 | 0.064 | 0.059 | 0.0586 | 0.0514 | 0.0423 | 0.0589 |  | 0.066 | 0.0519 | 0.0633 |  |  | 0.0557 | 0.0143 |  |  |
| D161C | 0.0605 | 0.0574 | 0.0591 | 0.0674 | 0.0647 | 0.0413 | 0.0593 | 0.0745 | 0.0619 |  | 0.0556 | 0.0666 | 0.0672 |  | 0.0655 | 0.0607 | 0.0592 |  | 0.063 |
| Q197G | 0.0624 | 0.0645 | 0.0682 |  |  |  |  |  |  |  | 0.0387 | 0.0644 | 0.0728 |  | 0.0577 | 0.0627 | 0.0517 |  | 0.0651 |
| Q197K | 0.0659 | 0.0475 | 0.0776 | 0.0715 | 0.085 | 0.0582 | 0.0905 | 0.0793 | 0.0658 | 0.0787 | 0.0656 | 0.0529 | 0.0637 | 0.0906 |  | 0.0603 | 0.0587 |  | 0.0694 |
| N175F | 0.0513 | 0.0729 | 0.0687 |  |  | 0.0517 | 0.0809 | 0.0723 | 0.0978 | 0.0951 |  | 0.0551 |  |  | 0.095 | 0.0603 | 0.0918 |  | 0.0599 |
| N175C | 0.072 |  | 0.0993 | 0.0907 |  | 0.0677 |  | 0.073 |  |  | 0.066 | 0.0379 | 0.086 |  |  | 0.0681 |  |  |  |
| F163R | 0.0617 | 0.0824 | 0.0696 | 0.0942 | 0.0172 | 0.0841 | 0.0745 | 0.0449 | 0.0945 | 0.0662 | 0.0677 | 0.0553 | 0.0795 |  | 0.0672 |  | 0.0768 |  |  |
| F163V | 0.0787 |  | 0.0584 | 0.0895 |  |  |  | 0.0727 |  |  | 0.0656 | 0.0553 |  |  |  |  | 0.0585 |  |  |
| I145F | 0.061 | 0.117 |  | 0.0788 | 0.0699 |  | 0.09 |  |  | 0.0596 |  | 0.0288 | 0.076 | 0.0886 |  |  |  |  | 0.0641 |
| F140C | 0.0643 | 0.0561 | 0.0619 | 0.0666 |  |  | 0.0614 | 0.0662 | 0.0681 |  | 0.0706 | 0.0626 | 0.0729 | 0.0555 | 0.0687 | 0.0612 | 0.066 |  | 0.056 |
| F140K | 0.0687 |  | 0.0732 | 0.078 |  | 0.108 | 0.0947 | 0.0654 |  |  | 0.0841 | 0.0632 | 0.071 |  | 0.0557 |  | 0.0493 |  |  |
